The other results are listed elsewhere or left out. For part of these data: At the low end of the ranking the order means little. For part of these data: The protein was read in a cell extract, so binding may be indirect.
Columns and labels:
Settings in all cases: 20 mM HEPES pH 7.9, 100 mM NaCl, 1 mM DTT, 0.2 mg/mL BSA, 0.02% Triton X-100, 2% milk, 0.4 mg/mL salmon testes DNA; 1 h; temperature not stated; high values mean tight binding; double strand, one strand shown; sequences stand for … in GCCTAGCAC…GTGCTAGGTCTTGATTCGCTTGACGCTGCTG
[1] = molecular target: PU.1 (IVT) (UniProt P17947); experiment: protein-binding microarray (PBM)
[2] = molecular target: T1, FLI1 (endogenous, THP-1 nuclear extract) (UniProt Q01543); experiment: nuclear extract protein-binding microarray (nextPBM)
T1 sequence: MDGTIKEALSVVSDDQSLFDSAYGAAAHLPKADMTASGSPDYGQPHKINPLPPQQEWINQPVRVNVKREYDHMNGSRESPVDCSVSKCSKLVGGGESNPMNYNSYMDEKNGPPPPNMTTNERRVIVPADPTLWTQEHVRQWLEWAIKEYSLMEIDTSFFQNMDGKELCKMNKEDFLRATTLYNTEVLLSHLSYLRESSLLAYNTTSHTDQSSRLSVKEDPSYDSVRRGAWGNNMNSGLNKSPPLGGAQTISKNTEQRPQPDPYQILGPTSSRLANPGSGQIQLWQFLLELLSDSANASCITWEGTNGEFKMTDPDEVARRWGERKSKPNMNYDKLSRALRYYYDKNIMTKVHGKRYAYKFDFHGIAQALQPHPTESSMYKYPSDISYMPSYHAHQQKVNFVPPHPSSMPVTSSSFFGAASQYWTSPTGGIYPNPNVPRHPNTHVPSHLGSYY

[3] = tested on: PU.1 (endogenous, THP-1 nuclear extract) + IRF8 (endogenous, THP-1 nuclear extract); experiment: as above

Sequence | binding signal [1] [z-score] | binding signal [2] [z-score] | binding signal [3] [z-score]
TGGCAGAGGAAGTGAAACTT | 3.93 | 3.55 | 38.1
TGACACAGGAAGTGAAACCA | 2.45 | 4.96 | 51.4
GATAAGAGGAACTGAAAACT | 4.63 | 1.76 | 1.58
AAAAATAGGAAGTGAAACTG | 6.16 | 4.46 | 67.2
TTAAACAGGAAGTGAAACCA | 5.61 | 5.92 | 75.2
CTGCCAGCGAAGTGAAAGCA | -0.24 | 0.262 | 3.72
GAAAAGAGGAAATGAAACTA | 6.31 | 4.07 | 67.1
CTGCCAGGGAAGTTAAAGCA | 1.25 | 0.175 | -0.862
TGAAAGAGGAACTGAAAATG | 5.75 | 3.03 | 4.79
AAAAAGAGGAAGAGAAACTG | 5.82 | 2.81 | 18
CAAATGTGGAAGTGAAACTC | 4.71 | 3.13 | 50.1
TAAAGGACGAACTGAAACCA | -0.363 | -0.17 | 14
ACGACGTGGAAGTGAAACTT | 1.57 | 1.1 | 31.4
AAAAAAAGGCAATGAAAGTA | -0.00868 | -0.573 | 2.31
TGAAACAAGAAGTGAAACCT | 1.42 | 0.589 | 26.6
TGCAGAGGGAAGTGAAACTG | 3.24 | 2.82 | 45.7
TAAGAGGAGAAGTGAAACCT | 1.19 | 0.789 | 22.5
TGGCAGAGGAAGAGAAACTA | 0.937 | 0.722 | 3.61
GGCGGGAGGAAGTGAAACTT | 3.37 | 3.44 | 47.7
TGGCACAGGAAGTGAAACTA | 2.38 | 5.1 | 61

Sequence | binding signal [1] [z-score] | binding signal [2] [z-score] | binding signal [3] [z-score]
TAAAGGAGGAACTGAAACCC | 3.74 | 1.96 | 21.9
AAAAAGGGGAAGCGAAACTT | 6.36 | 3.45 | 68.2
CAAAAGCAGAAGTGAAACTT | 5.34 | 3.39 | 62.1
GAAAAGAGGAAGAGAAACTG | 5.45 | 2.25 | 17.6
TATTTGGGGAAGTGAAACTG | 5.32 | 3.53 | 73.1
GATAAGAGGAACTGAATGCT | 4.31 | 1.56 | 1.27
CTGGCACGGAACTGAAACTC | 0.856 | 0.695 | 11.2
TAAAGGCGGAACTGAAACCA | 3.31 | 2.51 | 34.5
GATAAGAGGAACGGAAAGCT | 1.18 | 1.5 | 0.187
AATTTGAGGAACTGAAAGAA | 4.81 | 1.51 | 3.7
TGAGAGGAGAAGTGAAACCA | 1.19 | 0.47 | 39.5
CAGAATAGGAAGTGAAACTT | 3.98 | 3.2 | 51.5
TAAAGGAGGAACTGAAACCG | 3.73 | 2.04 | 33.1
AAAAAACGGAAATGAAAGTA | 3.75 | 3.79 | 22.1
CTGCCAGGGAGGTGAAAGCA | -0.159 | -0.0494 | 1.21
AGATTGTGGAAGTGAAAGTA | 2.72 | 1.73 | 30.7
CGGGCAGGGAACTGAAACTC | 0.702 | 0.234 | 9.32
TGGCCGAGGAAGTGAAACTA | 1.3 | 1.66 | 52.1
AAAAAAAGGAAATGAAAGTG | 3.27 | 2.29 | 10
CTGGCAGGGGACTGAAACTC | -0.594 | -0.612 | 5.46

Sequence | binding signal [1] [z-score] | binding signal [2] [z-score] | binding signal [3] [z-score]
GTATTCAGGAACTGAAACTC | 1.7 | 1.61 | 23.1
GATAAGAGGTACTGAAAGCT | 0.307 | -0.0604 | 1.41
TAAAGTAGGAACTGAAACCA | 2 | 1.63 | 25.7
GTGGTGAGGAACTGAAACTG | 1.8 | 1.17 | 20.1
TGAAACAGGAAGTGATACCA | 6.6 | 5.77 | 29.1
AGAAAGGGGAAGAGAAACTG | 4.81 | 2.18 | 6.66
AAAAGGAGGAAGCGAAACTC | 3.6 | 2.65 | 62
TGAAACAGCAAGTGAAACCA | -0.513 | 0.0336 | 18.5
AAAAGAAGGAAATGAAAGTA | 1.98 | 2.05 | 11.2
AAAAGGAGGAAGTGAAAGTA | 6.69 | 4.47 | 56.2
TGGTAGAGGAAGTGAAACTA | 4.29 | 3.77 | 70.4
TGAGACAGGAAGTGAAACCA | 2.99 | 5.6 | 54.4
TATAAAGGGAAGTGAAAATG | 4.52 | 2.17 | 3.77
GAGAAGAGGAACTGAAACTA | 4.41 | 3.1 | 52.2
CTACCAGGGAAGTGAAAGCA | 1.25 | 0.763 | 4.34
AGAGAGGAGAAGTGAAACCT | 1.5 | 0.611 | 26.8
TCAGAGGAGAAGTGAAACCT | 1.11 | 0.785 | 23.7
ATAGGGAGGAAGTGAAACTT | 3.73 | 3.62 | 47.7
CTGCCAGGGAACTGAAACTC | 0.185 | -0.0882 | 10.3
GAAAAGGAGAACTGAAACTT | 3.59 | 1.46 | 32.7
